According to PMC4336329 (PLoS ONE, 2015):
Screen size: about 310,000 compounds; about 14,000 (4.5%) showed an effect of 50% or more. The effect is printed as a negative number. The list shows a part of the results.

Target: human ether-à-go-go-related gene (hERG) potassium channel (human, UniProt Q12809)
Experiment: primary screen, population patch clamp on CHO cells stably expressing hERG
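Further: peak tail current of the secondary pulse compared with the same well before compound.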

Sequence of human ether-à-go-go-related gene (hERG) potassium channel (Q12809 whole entry, looked up): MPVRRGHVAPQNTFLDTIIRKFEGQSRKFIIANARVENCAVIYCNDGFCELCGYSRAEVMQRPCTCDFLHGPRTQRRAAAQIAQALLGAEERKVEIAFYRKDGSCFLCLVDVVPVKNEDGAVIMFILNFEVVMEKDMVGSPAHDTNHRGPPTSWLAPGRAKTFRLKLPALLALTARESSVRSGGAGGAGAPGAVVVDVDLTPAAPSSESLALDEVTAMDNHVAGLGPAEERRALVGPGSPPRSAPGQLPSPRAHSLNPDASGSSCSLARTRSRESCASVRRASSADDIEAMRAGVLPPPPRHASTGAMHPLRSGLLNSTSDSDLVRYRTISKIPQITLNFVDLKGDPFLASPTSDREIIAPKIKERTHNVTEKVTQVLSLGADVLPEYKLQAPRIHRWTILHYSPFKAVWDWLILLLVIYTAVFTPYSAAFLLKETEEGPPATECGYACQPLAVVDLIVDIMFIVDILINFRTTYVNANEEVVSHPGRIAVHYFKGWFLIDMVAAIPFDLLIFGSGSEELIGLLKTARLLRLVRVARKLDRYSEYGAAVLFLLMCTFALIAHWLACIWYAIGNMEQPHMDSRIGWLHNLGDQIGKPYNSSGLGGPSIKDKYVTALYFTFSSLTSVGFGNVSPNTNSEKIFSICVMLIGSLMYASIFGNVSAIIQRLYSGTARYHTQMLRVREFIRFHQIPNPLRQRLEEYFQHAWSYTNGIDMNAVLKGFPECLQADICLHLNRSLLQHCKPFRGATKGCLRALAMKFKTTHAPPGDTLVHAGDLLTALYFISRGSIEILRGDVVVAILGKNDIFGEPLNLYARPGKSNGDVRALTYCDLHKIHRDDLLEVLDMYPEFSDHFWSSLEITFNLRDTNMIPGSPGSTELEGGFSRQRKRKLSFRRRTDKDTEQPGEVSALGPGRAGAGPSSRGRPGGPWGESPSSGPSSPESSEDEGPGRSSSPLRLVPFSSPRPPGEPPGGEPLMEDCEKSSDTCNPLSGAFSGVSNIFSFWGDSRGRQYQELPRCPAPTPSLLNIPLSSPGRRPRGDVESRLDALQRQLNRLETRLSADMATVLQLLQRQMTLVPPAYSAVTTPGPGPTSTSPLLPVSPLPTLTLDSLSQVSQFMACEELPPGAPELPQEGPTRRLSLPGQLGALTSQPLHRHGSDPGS

| SMILES | hERG current change (%, negative = inhibition) at 10uM [%] |
| --- | --- |
| COc1ccc(-c2noc(CN3CCCCC3)n2)cc1OC | -1.49 |
| O=C(NCc1ccccc1)C1CCN(C(=O)Cc2ccccc2)CC1 | -4.13 |
| Cc1cccc(-n2c(=O)c3ccccc3n3c(=S)[nH]nc23)c1C | 20.4 |
| Cc1nnsc1C(=O)NC1CCCc2c1cnn2-c1ccccc1F (stereo not shown) | 8.75 |
| O=C1COc2ccccc2N1Cc1ccccc1Cl | -45.6 |
| COc1ccc(C(=O)CN2CCN(c3ccc(F)cc3)CC2)cc1OC | -32.2 |
| COC(=O)c1cc(=O)n(Cc2ccccc2)c(=NCc2ccccc2)s1 | 20.1 |
| COc1cc(/C=N/NC(=O)C(=O)NCc2cccnc2)ccc1O | -4.4 |
| Cn1c(=O)c2sccc2n2c(CCCC(=O)N3CCN(c4ccccn4)CC3)nnc12 | -11.1 |
| CCOC(=O)c1c(-c2ccc(-c3ccccc3)cc2)csc1NC(=O)C1C2CCC(O2)C1C(=O)O (stereo not shown) | 7.14 |
| O=C(Nc1ccccc1N1CCCCC1)c1ccc(Cl)cc1 | 12.6 |
| CCn1cc(S(=O)(=O)N2CCN(c3ccc(Cl)cc3)CC2)cn1 | 7.96 |
| COc1cc(NC(=O)c2noc3c2CCC3)c(OC)cc1Cl | 4.4 |
| O=C(Nc1cccc(C(F)(F)F)c1)NC1CCCCC1 | -3.18 |
| CCCCN(C(=O)c1cc(S(=O)(=O)N2CCOCC2)ccc1Cl)c1c(N)n(CC(C)C)c(=O)[nH]c1=O | -10.8 |
| CCc1nnc(NC(=O)c2c(O)c3c([nH]c2=O)CCCC3)s1 | 3.51 |
| c1ccc(CSc2nnnn2-c2cccc3ccccc23)nc1 | -3.49 |
| COc1ccc(C2=NC(C)(C)Cc3cc(OC)c(OC)cc32)cc1 | -44 |
| CCOc1ccc(N(CC(=O)NC2CCCCC2)C(=O)CNC(=O)c2ccco2)cc1 | -21.1 |
| NS(=O)(=O)c1cccc(NC(=O)Cn2cnc3ccccc3c2=O)c1 | 13.3 |
| CCC(C)NC(=O)C1CC(=O)N(CCc2ccc(F)cc2)C1 (stereo not shown) | 15.6 |
| COCCN(C(=O)COC(=O)c1ccc(C)s1)c1c(N)n(Cc2ccccc2)c(=O)[nH]c1=O | -4.41 |

| SMILES | hERG current change (%, negative = inhibition) at 10uM [%] |
| --- | --- |
| O=C(c1ccc(S(=O)(=O)NCc2ccco2)cc1)N1CCN(Cc2ccc3c(c2)OCO3)CC1 | -32.5 |
| CC(=O)N1CCN(c2nnnn2-c2ccccc2)CC1 | -2.01 |
| CC(=O)C1=C(O)C(=O)N(c2cccc(Br)c2)C1c1ccc(Br)cc1 (stereo not shown) | 15.8 |
| Cc1cc(N)n(-c2cc(C)c3ccccc3n2)n1 | 5.92 |
| O=C(Nc1ccc2c(c1)CCC2)c1cnn2c1NC(c1ccco1)CC2C(F)(F)F (stereo not shown) | 0.207 |
| Cc1nc(C(C)N(C)Cc2c(C(=O)N3CCCCC3)nc3c(C)cccn23)c(C)s1 (stereo not shown) | -22.7 |
| Nc1nc2ccc(NC(=O)c3ccco3)cc2s1 | 11.7 |
| O=C(CN(c1cccc(C(F)(F)F)c1)S(=O)(=O)c1ccc(Cl)c([N+](=O)[O-])c1)NCc1ccccc1 | -3.26 |
| N#CCC(=O)N/N=C/c1ccc(Cl)cc1 | 8.5 |
| CCN(c1ccc(C(=O)CSc2nnc(C3CC3)n2C2CC2)cc1)S(C)(=O)=O | -6.53 |
| CCN(CC)c1ccc(NC(=O)c2c(C)noc2C)cc1 | 12.3 |
| Cc1ccc(CN2CCCN(Cc3ccccc3C)S2(=O)=O)cc1 | 21.1 |
| Oc1ccc(Cl)cc1-c1cc(-c2cccc(Br)c2)n[nH]1 | 9.52 |
| Cc1c(C(=O)N(Cc2ccccc2Cl)C2CCS(=O)(=O)C2)oc2ccccc12 (stereo not shown) | -9.98 |
| CCOc1ccc(NC(=O)CCC(=O)NNC(=O)Nc2ccc(Cl)cc2)cc1 | 14.9 |
| CCCC1=C(C(=O)OCC)C(c2ccncc2)n2ncnc2N1 (stereo not shown) | -0.902 |
| COC(=O)C1=C(C)NC(=O)NC1c1ccccc1Cl (stereo not shown) | 14.6 |
| CCn1c(SCC(=O)NNC(=S)Nc2ccc(C)cc2)nnc1-c1ccc(Cl)cc1 | -20.4 |
| CCc1ccccc1NC(=O)CN(C)S(=O)(=O)c1ccc(-c2ccc(=O)[nH]n2)s1 | -74.8 |
| CCCc1c(C(=O)N/N=C/c2ccc(OCc3ccccc3)c(OC)c2)nnn1-c1nonc1N | 23.4 |
| COc1ccccc1CNC(=O)c1ccc(CNc2c(N3CCCC3)c(=O)c2=O)cc1 | -4.13 |
